According to PubChem BioAssay AID485281 (National Center for Advancing Translational Sciences (NCATS), 2010):
Screen size: about 350,000 compounds; about 260 (0.074%) were called active. This list was built around the results that the source calls inconclusive (neither active nor inactive); the mix of calls is not that of the screen. The call rests on the fitted dose curve; in most records, active means well fitted inhibition curve with a large enough effect; inconclusive means small, poorly fitted or top-dose-only effect; inactive means no such curve, though single readings can be large or run the other way. Potencies beside an inconclusive call are fits to weak or partial responses and may not hold up.

What follows are molecules tested against Ferritin light chain (Equus caballus) (UniProt P02791) (assay: qHTS Assay for Identification of Novel General Anesthetics). Conditions: apoferritin/1-aminoanthracene competitive binding, fluorescence; series mostly up to 77.5 µM.
In short: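 Horse-spleen apoferritin (10 uM) in 50% saturated 1-aminoanthracene in PBS was incubated 10 min at room temperature with compound. Fluorescence (ex 380, em 535 nm) was normalized to free and bound 1-AMA, with concentration-response fitted by a four-parameter Hill equation.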
Further: nearly all actives have a fitted effect of over 20% in size.
Potency means the concentration at half of the fitted maximal effect; tags describe the fitted curve by direction and shape.

Sequence of UniProt P02791 (P02791 whole entry, looked up): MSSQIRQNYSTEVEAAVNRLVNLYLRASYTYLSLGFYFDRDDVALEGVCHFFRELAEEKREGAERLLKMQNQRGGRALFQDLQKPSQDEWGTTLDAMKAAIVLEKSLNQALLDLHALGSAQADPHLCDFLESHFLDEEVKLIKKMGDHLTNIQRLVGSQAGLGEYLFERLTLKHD

Potency, inconclusive:
CCOC(=O)c1c(CC(C)C)csc1NC(=O)CCl 39.8 µM [inhibitor, single point]
CC(C)=NNc1nc(-c2ccc([N+](=O)[O-])cc2)cs1 28.2 µM [inhibitor, partial curve]
CC(=O)c1cccc(OCc2cc(C(=O)N3C[C@H]4CC[C@H]3C4)no2)c1 28.2 µM [inhibitor, partial curve]
CC(C)CCNC(=O)Cn1nc(N2CCN(c3ccccc3)CC2)ccc1=O 28.2 µM [inhibitor, partial curve]
Cc1cc(C(=O)COC(=O)CC2Sc3ccccc3NC2=O)c(C)n1-c1ccccc1 (stereo not given) 15.8 µM [inhibitor, partial curve, poor fit]
COC(=O)c1ccc(C(NC(=O)OCc2ccccc2)/C(I)=C/[C@@H](C)C(=O)NCc2ccc(C)o2)cc1 (stereo not given in full) 17.8 µM [inhibitor, partial curve]
O=C(c1cc2c(Cl)nc3ccccc3c2s1)N1CCCCC1 31.6 µM [inhibitor, partial curve]
COc1ccc(C(CNc2ccc(S(=O)(=O)N3CCCC3)cc2[N+](=O)[O-])N2CCCC2)cc1 (stereo not given) 22.4 µM [inhibitor, partial curve, poor fit]
O=C(Cc1ccc(Br)cc1)N1CCCCCC1 28.2 µM [inhibitor, single point]
Cc1cccc(N2CCN(C(=O)Cc3ccccc3[N+](=O)[O-])CC2)c1C 28.2 µM [inhibitor, single point]
CCc1ccc(/C=C2/SC(=S)N(CCC(=O)NCCCN3CCOCC3)C2=O)cc1 28.2 µM [inhibitor, partial curve]
Cc1ccc(-c2nc(SCC(N)=O)c(C#N)c3c2CCCC3)cc1 15.8 µM [inhibitor, partial curve]
C/C(Cc1ccccc1)=N\NC(=O)CNC(=O)/C=C\c1ccccc1 20 µM [inhibitor, partial curve]
O=C(c1cccc(F)c1)N1CCN=C1SCc1cccnc1 31.6 µM [inhibitor, single point]
O=C(CNC(=O)c1ccco1)OCC(=O)c1cccc2ccccc12 14.1 µM [inhibitor, partial curve]
Cc1cc(C)n(CCCNC(=O)c2cc(COc3ccc(C)c(C)c3)on2)n1 44.7 µM [inhibitor, single point]
COc1cc(NC(=O)Cc2noc3ccccc23)cc(OC)c1OC 25.1 µM [inhibitor, partial curve]
CC(NCC(O)COCCC12CC3CC(CC(C3)C1)C2)c1ccccc1 (stereo not given) 15.8 µM [inhibitor, partial curve]
COc1ccc(-c2ccc(=O)n(CC(=O)Nc3cc(OC)ccc3OC)n2)cc1 50.1 µM [inhibitor, single point]
CCC1CCCCN1CCn1c(=S)[nH]c2cc(OC)c(OC)cc2c1=O (stereo not given) 25.1 µM [inhibitor, partial curve]
Cc1cccc(NC(=S)N2CCC(c3nc4ccccc4o3)CC2)c1 31.6 µM [inhibitor, partial curve]
CCOC(=O)/C(=N\Nc1cc(C(F)(F)F)ccc1Cl)N(CC)CC 31.6 µM [inhibitor, single point]
CCc1nnc(NC(=O)CSc2nccn2Cc2ccc(Cl)cc2)s1 50.1 µM [inhibitor, single point]
Cc1cc(Cl)ccc1NC(=O)CCC(=O)N/N=C/c1cccnc1 28.2 µM [inhibitor, single point]
O=C(Nc1ccc(F)cc1F)C1CCN(C(=O)c2cnn(-c3ccccc3)c2-n2cccc2)CC1 7.08 µM [inhibitor, full curve]
CC(C)(C)C(=O)C(Cc1ccccc1Cl)n1cncn1 (stereo not given) 50.1 µM [inhibitor, partial curve]
C/C(=N\O)C(C)(C)Nc1ccc(Br)cc1 5.01 µM [inhibitor, full curve]
CCN(CC)S(=O)(=O)c1cccc(-c2n[nH]c(=S)n2/N=C/c2ccc(OC)cc2)c1 20 µM [inhibitor, partial curve]

Potency, inactive:
Cc1nn(CCc2nn[nH]n2)c2nc(-c3ccccc3)cc(C(F)(F)F)c12
c1ccc(-c2cn(CC3CCCCC3)nn2)cc1
Cc1cc2n(n1)C(c1ccco1)Nc1ccccc1-2 (stereo not given)
COCCCn1c(C(=O)NCCN2CCOCC2)cc2c(=O)n3cccc(C)c3nc21
CC(=O)c1cccc(NC(=O)CSc2ncc3c(n2)-c2cc(Cl)ccc2N(Cc2ccccc2)S3(=O)=O)c1
O=C(/C=C/c1cn(-c2ccccc2)nc1-c1cccnc1)N1CCCCC1
COc1ccc(CNC(=O)CSc2nnc(C)c3c(C)n(-c4ccccc4)nc23)c(OC)c1
COc1c[nH]n(C2CCCCC2)c(=O)c1=O
O=C(CCCC(=O)N(c1ccc2c(c1)OCCO2)C(C(=O)NC1CCCCC1)c1ccc(Cl)cc1)Nc1ccccn1 (stereo not given)
COC(=O)c1ccc(NC(=O)CC2C(=O)N(c3ccccc3)C(=O)N2Cc2cccs2)cc1 (stereo not given)
COc1ccc(C2C(C(=O)c3cccs3)=C(O)C(=O)N2c2nncs2)cc1 (stereo not given)
CCN1CCN(C(=O)/C(C#N)=C/c2ccc(OC(F)F)cc2)CC1
COc1ccc(OC)c(NC(=S)NCc2ccccc2OC)c1
Clc1cccc(Nc2nc(-c3cccnc3)cs2)c1
CCOC(=O)c1c(C)[nH]c(C(=O)OCC(=O)NC2CCS(=O)(=O)C2)c1C (stereo not given)
CC1(c2ccc(OCC#N)cc2)C=C(c2ccc(OCC#N)cc2)n2nc(C(F)(F)F)nc2N1 (stereo not given)
O=[N+]([O-])c1ccc(/C=N/Nc2nc(N3CCCCC3)nc(N3CCCCC3)n2)o1
